Laboratory results reported in the supplement of paper PMC4967469.

Columns and labels:
Experiment in all cases: Viability of human cancer cell lines after 72 h of drug (GDSC screen)
OSI-027 = compound: COc1cccc2cc(-c3nc([C@H]4CC[C@H](C(=O)O)CC4)n4ncnc(N)c34)[nH]c12 [OSI-027]; details: top dose 20 µM
Protocol: (§1)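 Human cancer cell lines in 384-well plates, medium with 10% serum, drug for 72 h over a 256-fold dose range (nine 2-fold or five 4-fold steps up to the top dose). Adherent lines were fixed and stained with the nucleic acid dye Syto60, suspension lines read with resazurin; signal relative to control wells, capped at 0 and 100%. One two-parameter sigmoid per drug and line, fitted in a mixed model over all curves with the slope shared within a line.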

UNC1215 = compound: O=C(c1ccc(C(=O)N2CCC(N3CCCC3)CC2)c(Nc2ccccc2)c1)N1CCC(N2CCCC2)CC1 [UNC1215]; details: top dose 1 µM; top dose inferred
Protocol: as §1

TG101348 = compound: Cc1cnc(Nc2ccc(OCCN3CCCC3)cc2)nc1Nc1cccc(S(=O)(=O)NC(C)(C)C)c1 [TG101348]; details: top dose 10.24 µM
Protocol: as §1

BIX02189 = compound: CN(C)Cc1cccc(N=C(c2ccccc2)c2c(O)[nH]c3cc(C(=O)N(C)C)ccc23)c1 [BIX02189]; details: top dose 20 µM; top dose inferred
Protocol: as §1

VX-11e = compound: Cc1cnc(Nc2ccc(F)cc2Cl)nc1-c1c[nH]c(C(=O)N[C@H](CO)c2cccc(Cl)c2)c1 [VX-11e]; details: top dose 5.12 µM; top dose inferred
Protocol: as §1

Vismodegib = compound: CS(=O)(=O)c1ccc(C(=O)Nc2ccc(Cl)c(-c3ccccn3)c2)c(Cl)c1 [Vismodegib]; details: top dose 10 µM; top dose inferred
Protocol: as §1

CCT018159 = compound: CCc1cc(-c2n[nH]c(C)c2-c2ccc3c(c2)OCCO3)c(O)cc1O [CCT018159]; details: top dose 10 µM; top dose inferred
Protocol: as §1

Dimethyloxalylglycine = compound: COC(=O)CNC(=O)C(=O)OC [Dimethyloxalylglycine]; details: top dose 4000 µM; top dose inferred
Protocol: as §1

BMX-IN-1 (QL-XII-61) = compound: C=CC(=O)Nc1cc(-n2c(=O)ccc3cnc4ccc(-c5ccc(NS(C)(=O)=O)cc5)cc4c32)ccc1C [BMX-IN-1 (QL-XII-61)]; details: top dose 10 µM; top dose inferred
Protocol: as §1

17-AAG = compound: C=CCNC1=C2C[C@@H](C)C[C@H](OC)[C@H](O)[C@@H](C)/C=C(\C)[C@H](OC(N)=O)[C@@H](OC)/C=C\C=C(/C)C(=O)NC(=CC1=O)C2=O [17-AAG]; details: top dose 1 µM
Protocol: as §1

Cell Line | AUC (OSI-027) | IC50 (OSI-027) [µM] | AUC (UNC1215) | IC50 (UNC1215) [µM] | AUC (TG101348) | IC50 (TG101348) [µM] | AUC (BIX02189) | IC50 (BIX02189) [µM] | AUC (VX-11e) | IC50 (VX-11e) [µM] | AUC (Vismodegib) | IC50 (Vismodegib) [µM] | AUC (CCT018159) | IC50 (CCT018159) [µM] | AUC (Dimethyloxalylglycine) | IC50 (Dimethyloxalylglycine) [µM] | AUC (BMX-IN-1 (QL-XII-61)) | IC50 (BMX-IN-1 (QL-XII-61)) [µM] | AUC (17-AAG) | IC50 (17-AAG) [µM]
NCI-H460 (large cell lung carcinoma, adherent) | 0.985 | > 20 | 0.899 | > 1 | 0.98 | > 10.2 | 0.97 | > 20 | 0.944 | > 5.12 | 0.99 | > 10 | 0.819 | 5.02 | 0.446 | 180 | 0.985 | > 10 |  | 
NCI-H2066 (small cell lung carcinoma, adherent) |  |  | 0.977 | > 1 |  |  |  |  |  |  |  |  |  |  |  |  | 0.975 | > 10 | 0.948 | > 1
OVCAR-3 (ovary, adherent) | 0.986 | > 20 | 0.985 | > 1 | 0.987 | > 10.2 | 0.985 | > 20 | 0.985 | > 5.12 |  |  | 0.914 | > 10 | 0.442 | 171 | 0.943 | > 10 | 0.811 | 0.597
OVCAR-8 (ovary, adherent) | 0.508 | 1.31 | 0.989 | > 1 | 0.867 | 7.68 | 0.935 | > 20 | 0.866 | 3.78 |  |  | 0.83 | 5.4 | 0.629 | 542 | 0.97 | > 10 | 0.587 | 0.105
RL95-2 (endometrium, adherent) | 0.943 | > 20 | 0.986 | > 1 | 0.967 | > 10.2 | 0.945 | > 20 | 0.771 | 1.94 | 0.971 | > 10 |  |  | 0.856 | 3160 | 0.926 | > 10 |  | 
SCC-4 (head and neck, adherent) | 0.914 | > 20 | 0.982 | > 1 | 0.932 | > 10.2 | 0.974 | > 20 | 0.92 | > 5.12 | 0.98 | > 10 | 0.839 | 8.78 | 0.662 | 771 | 0.982 | > 10 |  | 
SK-MEL-28 (melanoma, adherent) | 0.729 | 5.53 | 0.987 | > 1 | 0.981 | > 10.2 | 0.976 | > 20 | 0.824 | 2.97 |  |  | 0.927 | > 10 | 0.61 | 497 | 0.984 | > 10 | 0.595 | 
SKM-1 (haematopoietic neoplasm, suspension) |  |  | 0.981 | > 1 |  |  |  |  |  |  |  |  | 0.875 | > 10 |  |  | 0.76 | 3.85 | 0.673 | 0.2

By IC50 is meant the dose at which the fit gives 50% viability; a fit beyond the top or the lowest dose is shown as a bound at that dose. The AUC spans the tested range (256-fold, ending at the top dose) of the same fit: 1 means no effect, lower means more sensitive. For some assays here: A top dose marked as inferred was derived from the fitted curves, not read from the paper.
